Experimental data: the supplement of paper PMC11876631
Changes are numbered by the printed parent chain. Numbers in names are those of the source. ± gives the standard deviation of the averaged measurements. Laboratory Escherichia coli strains with one amino-acid change in an essential protein, pooled on minimal glucose agar with carbenicillin or gentamicin at twice the control MIC (plus kanamycin and chloramphenicol for the plasmids), 48 h. Fold change of barcode share against drug-free plates; higher = less susceptible. Active = above 20 in both replicates (the paper's putatively resistant). '<' = one read or none on drug, '>' = one read or none on a drug-free plate. Shares are relative, so most strains fall below 1 when a few take over. Listed are strains with at least 15 reads on both drug-free plates, and hits; most hits rest on fewer reference reads. Replicate rank correlation about 0.5. Edits are read from barcodes.

B1: lptG L73P (protein)
chain: MQPFGVLDRYIGKTIFTTIMMTLFMLVSLSGIIKFVDQLKKAGQGSYDALGAGMYTLLSVPKDVQIFFPMAAPLGALLGLGMLAQRSELVVMQASGFTRMQVALSVMKTAIPLVLLTMAIGEWVAPQGEQMARNYRAQAMYGGSLLSTQQGLWAKDGNNFVYIERVKGDEELGGISIYAFNENRRLQSVRYAATAKFDPEHKVWRLSQVDESDLTNPKQITGSQTVSGTWKTNLTPDKLGVVALDPDALSISGLHNYVKYLKSSGQDAGRYQLNMWSKIFQPLSVAVMMLMALSFIFGPLRSVPMGVRVVTGISFGFVFYVLDQIFGPLTLVYGIPPIIGALLPSASFFLISLWLLMRKS
B2: lptG I175A (protein)
chain: B1 chain with P73L, I175A
B3: lptG I175W (protein)
chain: B1 chain with P73L, I175W
B4: lpxA V32A (protein)
chain: MIDKSAFVHPTAIVEEGASIGANAHIGPFCIAGPHVEIGEGTVLKSHVVVNGHTKIGRDNEIYQFASIGEVNQDLKYAGEPTRVEIGDRNRIRESVTIHRGTVQGGGLTKVGSDNLLMINAHIAHDCTVGNRCILANNATLAGHVSVDDFAIIGGMTAVHQFCIIGAHVMVGGCSGVAQDVPPYVIAQGNHATPFGVNIEGLKRRGFSREAITAIRNAYKLIYRSGKTLDEVKPEIAELAETYPEVKAFTDFFARSTRGLIR
B5: lpxA V171A (protein)
chain: B4 chain with A32V, V171A
B6: lpxA V171W (protein)
chain: B4 chain with A32V, V171W
B7: lpxA V171Q (protein)
chain: B4 chain with A32V, V171Q
B8: lpxA V171D (protein)
chain: B4 chain with A32V, V171D
B9: lpxA V171P (protein)
chain: B4 chain with A32V, V171P
B10: lpxA F249W (protein)
chain: B4 chain with A32V, F249W
B11: lpxA L44A (protein)
chain: B4 chain with A32V, L44A
B12: lpxA I215A (protein)
chain: B4 chain with A32V, I215A
B13: lpxB V12A (protein)
chain: MTEQRPLTIALAAGETSGDILGAGLIRALKEHVPNARFVGVAGPRMQAEGCEAWYEMEELAVMGIVEVLGRLRRLLHIRADLTKRFGELKPDVFVGIDAPDFNITLEGNLKKQGIKTIHYVSPSVWAWRQKRVFKIGRATDLVLAFLPFEKAFYDKYNVPCRFIGHTMADAMPLDPDKNAARDVLGIPHDAHCLALLPGSRGAEVEMLSADFLKTAQLLRQTYPDLEIVVPLVNAKRREQFERIKAEVAPDLSVHLLDGMGREAMVASDAALLASGTAALECMLAKCPMVVGYRMKPFTFWLAKRLVKTDYVSLPNLLAGRELVKELLQEECEPQKLAAALLPLLANGKTSHAMHDTFRELHQQIRCNADEQAAQAVLELAQ
B14: lpxB V12Q (protein)
chain: B13 chain with A12Q
B15: lpxB V12D (protein)
chain: B13 chain with A12D

Molecular target: Escherichia coli (laboratory strain)
Experiment: barcode share on antibiotic plates over drug-free plates; higher = less susceptible
Details: antibiotic: carbenicillin; 2× MIC (3.1 µg/mL)
Experimental: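 A pool of E. coli strains, each edited to carry one amino-acid change in an essential protein, was grown for 48 h on minimal glucose agar with or without antibiotic; strain barcodes were sequenced; mean of two replicates.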

Protein	fold change of barcode share
B1	0.413 ± 0.026
B2	0.205 ± 0.19
B3	0.208 ± 0.13
B4	> 48.1 [active]
B5	0.301 ± 0.023
B6	0.355 ± 0.049
B7	0.778 ± 0.62
B8	0.293 ± 0.05
B9	0.252 ± 0.069
B10	0.232 ± 0.096
B11	0.226 ± 0.0072
B12	0.161 ± 0.055
B13	0.264 ± 0.012
B14	1.27 ± 0.39
B15	1.03 ± 0.2

Same assay, conditions: antibiotic: gentamicin; 2× MIC (MIC 0.45 µg/mL)

Protein	fold change of barcode share
B1	0.014 ± 0.018
B3	< 0.0141
B5	0.00695 ± 0.0037
B6	0.05 ± 0.06
B7	< 0.00197
B8	0.00259 ± 0.0017
B9	0.00761 ± 0.0039
B10	< 0.011
B11	< 0.0123
B12	< 0.0169
B13	< 0.00483
B14	0.00389 ± 0.0018
